Experimental data from the supplement of paper PMC4967469.
By IC50 is meant the dose at which the fit gives 50% viability; fits outside the tested doses are given as limits. For AUC the same curve is integrated over the 256-fold range of doses and scaled to a fraction; the more sensitive the line, the further below 1. For some of these results: Where the top dose is marked as inferred, it comes from the curve model; the source does not state it. For some of these results: Where an entry number is given, a second screen of the drug exists; the two often differ.

Legend:
Assay in all cases: Viability of human cancer cell lines after 72 h of drug (GDSC screen)
[1] = compound: Cn1cc(C2=C(c3ccc(Cl)cc3Cl)C(=O)NC2=O)c2ccccc21 [SB 216763]; conditions: top dose 10 µM; top dose inferred
Procedure: (§1)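 Human cancer cell lines in 384-well plates, medium with 10% serum, drug for 72 h over a 256-fold dose range (nine 2-fold or five 4-fold steps up to the top dose). Adherent lines were fixed and stained with the nucleic acid dye Syto60, suspension lines read with resazurin; signal relative to control wells, capped at 0 and 100%. One two-parameter sigmoid per drug and line, fitted in a mixed model over all curves with the slope shared within a line.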

[2] = compound: CC(C)[C@H](C(=O)Nc1ccc(C(=O)NO)cc1)c1ccccc1 [AR-42]; conditions: top dose 5.12 µM; top dose inferred
Procedure: as §1

[3] = compound: Cc1ccc(Nc2nccc(N(C)c3ccc4c(C)n(C)nc4c3)n2)cc1S(N)(=O)=O [Pazopanib]; conditions: top dose 8 µM
Procedure: as §1

[4] = compound: C[C@]12O[C@H](C[C@]1(O)CO)n1c3ccccc3c3c4c(c5c6ccccc6n2c5c31)CNC4=O [CEP-701]; conditions: top dose 2 µM; top dose inferred
Procedure: as §1

[5] = compound: CCN(CC)CCNC(=O)c1c(C)[nH]c(/C=C2\C(=O)Nc3ccc(F)cc32)c1C [Sunitinib]; conditions: top dose 8 µM
Procedure: as §1

[6] = compound: CS(=O)(=O)N1CCN(Cc2cc3nc(-c4cccc5[nH]ncc45)nc(N4CCOCC4)c3s2)CC1 [GDC0941]; conditions: top dose 4 µM; screen: GDSC drug entry 1527; top dose inferred
Procedure: as §1

[7] = compound: CC(C)C[C@@H](C=O)NC(=O)[C@H](CC(C)C)NC(=O)[C@H](CC(C)C)NC(=O)OCc1ccccc1 [MG-132]; conditions: top dose 1 µM
Procedure: as §1

Cell Line | AUC [1] | IC50 [1] | AUC [2] | IC50 [2] | AUC [3] | IC50 [3] | AUC [4] | IC50 [4] | AUC [5] | IC50 [5] | AUC [6] | IC50 [6] | AUC [7] | IC50 [7]
EW-24 (Ewing sarcoma, semi-adherent) | 0.976 | > 10000 nM | 0.8 | 2130 nM | 0.987 | > 8000 nM | 0.918 | > 2000 nM | 0.99 | > 8000 nM | 0.862 | 2770 nM | 0.836 | 553 nM
EoL-1-cell (haematopoietic neoplasm, suspension) | 0.955 | > 10000 nM | 0.1 | < 20 nM | 0.025 | < 31.2 nM | 0.14 | 11.5 nM | 0.023 | < 31.2 nM | 0.863 | 2820 nM | 0.959 | > 1000 nM
GB-1 (glioma, adherent) | 0.926 | > 10000 nM | 0.308 | 83.6 nM | 0.81 | 5180 nM | 0.563 | 191 nM | 0.629 | 1210 nM | 0.82 | 2840 nM | 0.705 | 265 nM
GDM-1 (acute myeloid leukaemia, suspension) | 0.987 | > 10000 nM | 0.326 | 107 nM | 0.337 | 181 nM | 0.649 | 317 nM | 0.174 | 54.7 nM | 0.45 | 184 nM | 0.782 | 399 nM
GOTO (neuroblastoma, adherent) | 0.983 | > 10000 nM | 0.624 | 736 nM | 0.976 | > 8000 nM | 0.771 | 872 nM | 0.913 | > 8000 nM | 0.895 | > 4000 nM | 0.974 | > 1000 nM
GR-ST (lymphoblastic leukaemia, suspension) | 0.971 | > 10000 nM | 0.408 | 170 nM | 0.945 | > 8000 nM | 0.696 | 504 nM | 0.89 | > 8000 nM | 0.487 | 229 nM | 0.949 | > 1000 nM
GT3TKB (stomach, adherent) | 0.986 | > 10000 nM | 0.669 | 887 nM | 0.887 | 7050 nM | 0.633 | 276 nM | 0.871 | 6050 nM | 0.782 | 1460 nM | 0.837 | 559 nM
H9 (lymphoid neoplasm, suspension) | 0.991 | > 10000 nM | 0.986 | > 5120 nM | 0.992 | > 8000 nM | 0.564 | 181 nM | 0.752 | 2240 nM | 0.94 | > 4000 nM | 0.734 | 249 nM
HA7-RCC (kidney, adherent) | 0.985 | > 10000 nM | 0.976 | > 5120 nM | 0.931 | > 8000 nM | 0.795 | 1040 nM | 0.817 | 5080 nM | 0.693 | 927 nM | 0.872 | > 1000 nM
HAL-01 (lymphoblastic leukaemia, suspension) | 0.942 | > 10000 nM | 0.291 | 89.5 nM | 0.988 | > 8000 nM | 0.458 | 97.2 nM | 0.731 | – | 0.319 | 83.3 nM | 0.858 | 675 nM
HC-1 (hairy cell leukaemia, suspension) | 0.987 | > 10000 nM | 0.386 | 158 nM | 0.956 | > 8000 nM | 0.89 | > 2000 nM | 0.83 | 4760 nM | 0.735 | 1140 nM | 0.743 | 299 nM
HCC2157 (breast, suspension) | 0.987 | > 10000 nM | 0.78 | 2220 nM | 0.982 | > 8000 nM | 0.67 | 382 nM | 0.966 | > 8000 nM | 0.784 | 1790 nM | 0.722 | 275 nM
HCC2218 (breast, suspension) | 0.964 | > 10000 nM | 0.665 | 1050 nM | 0.879 | > 8000 nM | 0.963 | > 2000 nM | 0.98 | > 8000 nM | 0.769 | 1890 nM | 0.951 | > 1000 nM
HDLM-2 (Hodgkin lymphoma, suspension) | 0.983 | > 10000 nM | 0.896 | > 5120 nM | 0.923 | > 8000 nM | 0.653 | 330 nM | 0.821 | 4540 nM | 0.964 | > 4000 nM | 0.821 | 569 nM
HH (T-cell leukaemia, suspension) | 0.975 | > 10000 nM | 0.371 | 125 nM | 0.915 | > 8000 nM | 0.713 | 618 nM | 0.82 | 6740 nM | 0.355 | 86.7 nM | 0.762 | 473 nM
IST-MEL1 (melanoma, adherent) | 0.948 | > 10000 nM | 0.616 | 711 nM | 0.847 | 7730 nM | 0.604 | 256 nM | 0.794 | 4500 nM | 0.837 | 3450 nM | 0.799 | 588 nM
IST-SL2 (small cell lung carcinoma, suspension) | 0.989 | > 10000 nM | 0.989 | > 5120 nM | 0.96 | > 8000 nM | 0.802 | 971 nM | 0.82 | 4530 nM | 0.93 | > 4000 nM | 0.752 | 328 nM
JM1 (B-cell lymphoma, suspension) | 0.991 | > 10000 nM | 0.169 | 38.8 nM | 0.961 | > 8000 nM | 0.566 | 184 nM | 0.884 | 6500 nM | 0.946 | > 4000 nM | 0.678 | 181 nM
JVM-2 (lymphoid neoplasm, suspension) | 0.971 | > 10000 nM | 0.771 | 2430 nM | 0.957 | > 8000 nM | 0.616 | 280 nM | 0.928 | > 8000 nM | 0.45 | 177 nM | 0.925 | > 1000 nM
